# From the supplement of paper PMC3724861
# This is one part of the list.
# System: T1, Caupolican (Caup) homeodomain DNA-binding domain
# T1 sequence: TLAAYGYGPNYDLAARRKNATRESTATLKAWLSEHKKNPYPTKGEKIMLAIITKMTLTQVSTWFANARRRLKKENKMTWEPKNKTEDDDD
# Assay: PBM E-score (8-mer, recovered from the published 9-mer minima) (E-score (dimensionless, -0.5 to 0.5)); Drosophila protein; higher = stronger relative binding preference, active = 0.31 or more
# How it was run: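 Caup's homeodomain DNA-binding domain (residues 214-303) was made by in vitro transcription and translation and applied at 100 nM to custom-designed protein binding microarrays. Each value is an enrichment score that gives relative binding preference for a short DNA word, with higher meaning stronger. The 8-mer values were recovered from published 9-mer scores, each of which was the minimum of its two constituent 8-mer scores. A cutoff of 0.31 marks candidate sites.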
row,Sequence,PBM E-score
1,CACCCATC,inactive: -0.0606
2,AAAGCAAA,inactive: 0.0731
3,GACCGTGA,inactive: -0.039
4,CGCAACCA,inactive: -0.0345
5,CAACGCTA,inactive: -0.0166
6,CTTTGGGC,inactive: -0.164
7,AATGCGCT,inactive: -0.00804
8,ACGAATGG,inactive: -0.00234
9,CCAGAGAC,inactive: -0.109
10,AGTTGACC,inactive: -0.0917
11,GATTTCTA,inactive: -0.101
12,CGACGGTA,inactive: -0.06
13,CATTGCAG,inactive: 0.0838
14,GTCAAGGA,inactive: 0.0869
15,CGAGAGGA,≥ -0.058
16,ATAGCTAG,inactive: 0.0155
17,GCTAACCC,inactive: -0.135
18,CCCAGCAA,inactive: -0.09
19,ACAGGAAG,inactive: 0.0672
20,GAAGAACA,inactive: 0.3
21,AAACCTAA,inactive: -0.0381
22,TAGGTGCA,inactive: -0.00357
23,ACACAGCT,inactive: 0.109
24,CCAACAAA,inactive: 0.166

row,Sequence,PBM E-score
1,TCATCACA,inactive: 0.14
2,GAAGATTA,inactive: 0.0403
3,AACGAATT,inactive: 0.117
4,CAACTTGA,inactive: 0.0844
5,ATGGGGGA,inactive: -0.179
6,ACTGAGCA,inactive: 0.0738
7,AAAGAAGT,inactive: 0.0392
8,AGATGGAC,inactive: 0.0396
9,GTCGATAA,inactive: 0.0563
10,ATTCGGTA,≥ 0.116
11,ACGCACGG,inactive: -0.132
12,CAGGTGCC,inactive: -0.177
13,GACTCATC,inactive: -0.0874
14,AGCCAAAG,inactive: -0.132
15,AATTAAGG,inactive: 0.0103
16,CATTCGAG,inactive: 0.00301
17,TCTCGGAA,inactive: -0.0231
18,CGTGCAGA,inactive: -0.114
19,CCGTGTGA,inactive: 0.0813
20,GGCTCCGA,inactive: -0.152
21,TGCGACCA,inactive: -0.069
22,AAATGTGC,inactive: 0.0201
23,AATTCAGT,inactive: 0.017
24,AATACGCT,inactive: 0.0431

row,Sequence,PBM E-score
1,AAGAACCA,inactive: 0.0468
2,CAGGGAAC,inactive: -0.0152
3,GGTCACTA,inactive: -0.0884
4,ATTTGAGG,inactive: -0.045
5,GTTGGTGA,inactive: 0.0582
6,ACATGAAA,active: 0.314
7,CATATGGC,inactive: 0.0643
8,CAGATGGC,inactive: -0.0362
9,CGGGACAA,inactive: 0.0647
10,AATTACAT,active: 0.385
11,GTAAATGA,inactive: 0.17
12,AAAGCTCG,inactive: -0.0924
13,GGTCTACA,inactive: 0.146
14,ATCGGTCG,inactive: -0.076
15,AACGCAAC,inactive: 0.0993
16,ACTAATAT,inactive: 0.215
17,GATGTAGA,inactive: 0.208
18,ATTCGGAC,inactive: 0.0206
19,GGCACCAA,inactive: -0.0973
20,AAAAAGGC,inactive: -0.0834
21,ACTGCCCT,inactive: -0.128
22,ACCCATAC,inactive: 0.083
23,AAAGTGCA,inactive: 0.0417
24,AAGGAGGG,inactive: -0.196

row,Sequence,PBM E-score
1,CTACCTCC,inactive: -0.0693
2,ACACTGCG,inactive: -0.0465
3,CAAACGGA,inactive: -0.137
4,GTAACTCA,inactive: -0.031
5,GAGACGCC,inactive: -0.214
6,AATGGTAT,inactive: 0.153
7,AGACACGC,inactive: 0.174
8,AACTGAGT,inactive: 0.0536
9,CCTCCTCA,inactive: -0.128
10,AGCCCAGG,inactive: -0.286
11,GACTTGTA,active: 0.38
12,TCCAGACA,inactive: 0.0423
13,TCGGCCGA,inactive: -0.111
14,TAGCGAAA,inactive: -0.0311
15,TAGCTACA,inactive: 0.223
16,ACAGCTGT,≥ 0.0661
17,ATCAAAGC,inactive: -0.0471
18,ATGTGATG,inactive: 0.19
19,CCCCACAC,inactive: -0.217
20,CCCCTTTC,inactive: -0.237
21,ACATAGAT,inactive: 0.217
22,CGCGGCGC,inactive: -0.216
23,ATCGCTGA,inactive: -0.0435
24,CAAGAGAC,inactive: -0.0204

row,Sequence,PBM E-score
1,GGAGAAAC,inactive: -0.0682
2,TCACCGGA,inactive: -0.032
3,CCCCAATC,inactive: -0.137
4,TATCGGCA,inactive: -0.0349
5,ACAACCGC,inactive: 0.11
6,TTCAGCAA,inactive: 0.0762
7,ACTCGGAA,inactive: 0.0262
8,GCAACAGC,inactive: -0.0639
9,CGGGAGTA,inactive: 0.00308
10,AATTTGAT,inactive: 0.0195
11,CGTCGCTC,inactive: -0.0977
12,ATTTCGAC,inactive: 0.047
13,GGGCCCAC,inactive: -0.259
14,ACCGCTCA,inactive: -0.0439
15,GAAACTCA,inactive: 0.00452
16,GCAATCCA,inactive: 0.00806
17,AAGAGCGA,inactive: -0.0696
18,CGAAACAA,inactive: 0.22
19,ACCCTAGT,≥ 0.0534
20,ACCAAATG,inactive: 0.0564
21,GTCATGAC,inactive: 0.183
22,ACCATATA,inactive: 0.198
23,CGACTGCG,inactive: -0.135
24,GGGGTGCA,inactive: -0.111

row,Sequence,PBM E-score
1,CGTGGCCC,inactive: -0.262
2,AATCTCGA,inactive: -0.00814
3,CGGATAAG,inactive: -0.0309
4,CGTACAAC,active: 0.31
5,ATGCACGC,inactive: 0.0688
6,ACATCAGT,inactive: 0.221
7,CGGTGTTA,inactive: 0.179
8,ATGCGGGC,inactive: -0.129
9,CAAGAAAC,inactive: 0.128
10,CCCCCCGA,inactive: -0.311
11,ATGGTCCG,inactive: -0.0516
12,GTCCTGCA,inactive: 0.00365
13,ACATTTCG,inactive: 0.121
14,AAGCACGC,inactive: -0.0856
15,GACCTATC,inactive: -0.0604
16,GCCCTAGA,inactive: -0.159
17,CATGAGCG,inactive: -0.0996
18,AATAAACT,inactive: 0.0911
19,GAAAGTTA,inactive: 0.0815
20,CGAGACAG,inactive: 0.0937
21,ACGTTGTC,≥ 0.273
22,ATGAGTAG,inactive: 0.0743
